Results as given in publication PMC4242493.
The other results are listed elsewhere or left out. The list includes weakly bound sequences.

Target: MaxL homodimer (UniProt P61244)
Test: universal protein-binding microarray (PBM)
Details: PBS-based mixture, 10 nM His-tagged protein dimer, 2% milk, 200 ng/uL BSA, 50 ng/uL salmon testes DNA, 0.02% TX-100; detection with Alexa 488 anti-His …; high values mean tight binding; most listed sequences are background and not binding sites; double strand, one strand shown

UniProt P61244, sequence (P61244 whole entry): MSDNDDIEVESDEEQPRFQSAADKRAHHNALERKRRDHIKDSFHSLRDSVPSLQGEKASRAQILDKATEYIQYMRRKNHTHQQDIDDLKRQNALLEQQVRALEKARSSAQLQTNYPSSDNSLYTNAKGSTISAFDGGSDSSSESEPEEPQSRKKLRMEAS

Q: For CCGCCAAG, which binding signal (normalized occupancy) is on record?
A: The binding signal (normalized occupancy) was 0.0676.

Q: For AACACAGT, which binding signal (normalized occupancy) is on record?
A: The binding signal (normalized occupancy) was 0.0757.

Q: How did the binding signal (normalized occupancy) turn out when ACATCCTA was run?
A: Its binding signal (normalized occupancy) is 0.0822.

Q: Which binding signal (normalized occupancy) does the source give for TAATGATA here?
A: The binding signal (normalized occupancy) was 0.0786.

Q: Which binding signal (normalized occupancy) does the source give for CAGCCTGG here?
A: Its binding signal (normalized occupancy) is 0.0741.

Q: For GCGATAAA, which binding signal (normalized occupancy) is on record?
A: The binding signal (normalized occupancy) was 0.0758.

Q: How did the binding signal (normalized occupancy) turn out when AATACGTG was run?
A: Its binding signal (normalized occupancy) is 0.0807.

Q: TGGGTGAA was tested. Which binding signal (normalized occupancy) did it give?
A: The binding signal (normalized occupancy) was 0.0791.

Q: CGAATGCA was tested. Which binding signal (normalized occupancy) did it give?
A: Its binding signal (normalized occupancy) is 0.0799.

Q: How did the binding signal (normalized occupancy) turn out when AGCTAAAA was run?
A: The binding signal (normalized occupancy) was 0.0736.

Q: Which binding signal (normalized occupancy) does the source give for CCGTTGAA here?
A: The binding signal (normalized occupancy) was 0.0673.

Q: How did the binding signal (normalized occupancy) turn out when GTGCAGTA was run?
A: The binding signal (normalized occupancy) was 0.0802.

Q: With TGTAGACA as the sequence, how does the binding signal (normalized occupancy) read?
A: Its binding signal (normalized occupancy) is 0.0828.

Q: TGTGTCAA was tested. Which binding signal (normalized occupancy) did it give?
A: The binding signal (normalized occupancy) was 0.0893.

Q: For AGTCGATG, which binding signal (normalized occupancy) is on record?
A: Its binding signal (normalized occupancy) is 0.0703.

Q: CGTAAGAA was tested. Which binding signal (normalized occupancy) did it give?
A: Its binding signal (normalized occupancy) is 0.0752.

Q: With CCTGTATC as the sequence, how does the binding signal (normalized occupancy) read?
A: Its binding signal (normalized occupancy) is 0.0763.

Q: With CAGCTATC as the sequence, how does the binding signal (normalized occupancy) read?
A: The binding signal (normalized occupancy) was 0.0739.

Q: How did the binding signal (normalized occupancy) turn out when CCACTCAA was run?
A: The binding signal (normalized occupancy) was 0.0788.

Q: Which binding signal (normalized occupancy) does the source give for GAAGAGTC here?
A: The binding signal (normalized occupancy) was 0.0783.

Q: Which binding signal (normalized occupancy) does the source give for GGCTGTGA here?
A: Its binding signal (normalized occupancy) is 0.0774.

Q: Which binding signal (normalized occupancy) does the source give for AGCCGGTG here?
A: Its binding signal (normalized occupancy) is 0.07.

Q: Which binding signal (normalized occupancy) does the source give for ACGGGGAT here?
A: Its binding signal (normalized occupancy) is 0.0797.

Q: For ATCTCTCC, which binding signal (normalized occupancy) is on record?
A: Its binding signal (normalized occupancy) is 0.0774.

Q: CGTGATAC was tested. Which binding signal (normalized occupancy) did it give?
A: The binding signal (normalized occupancy) was 0.0943.

Q: Which binding signal (normalized occupancy) does the source give for ATCCACCG here?
A: The binding signal (normalized occupancy) was 0.0756.

Q: Which binding signal (normalized occupancy) does the source give for GAAGACAA here?
A: The binding signal (normalized occupancy) was 0.072.

Q: For GTACGGAC, which binding signal (normalized occupancy) is on record?
A: Its binding signal (normalized occupancy) is 0.0736.

Q: AGCCCAGC was tested. Which binding signal (normalized occupancy) did it give?
A: The binding signal (normalized occupancy) was 0.0684.

Q: Which binding signal (normalized occupancy) does the source give for CCGAGTAA here?
A: The binding signal (normalized occupancy) was 0.072.

Q: How did the binding signal (normalized occupancy) turn out when CAAGGTTA was run?
A: The binding signal (normalized occupancy) was 0.0735.

Q: Which binding signal (normalized occupancy) does the source give for AGGTTTCC here?
A: The binding signal (normalized occupancy) was 0.073.

Q: How did the binding signal (normalized occupancy) turn out when ACTCCGCT was run?
A: The binding signal (normalized occupancy) was 0.0721.

Q: How did the binding signal (normalized occupancy) turn out when GCAATCAA was run?
A: Its binding signal (normalized occupancy) is 0.0753.

Q: For GGCTTAAA, which binding signal (normalized occupancy) is on record?
A: Its binding signal (normalized occupancy) is 0.0668.

Q: For TGGTACCA, which binding signal (normalized occupancy) is on record?
A: Its binding signal (normalized occupancy) is 0.0812.

Q: Which binding signal (normalized occupancy) does the source give for CCGTAAGC here?
A: The binding signal (normalized occupancy) was 0.0734.

Q: How did the binding signal (normalized occupancy) turn out when CAACTGAA was run?
A: The binding signal (normalized occupancy) was 0.0717.

Q: For ACAGAGTA, which binding signal (normalized occupancy) is on record?
A: Its binding signal (normalized occupancy) is 0.073.

Q: With CATGAGTC as the sequence, how does the binding signal (normalized occupancy) read?
A: The binding signal (normalized occupancy) was 0.091.

Q: How did the binding signal (normalized occupancy) turn out when TGCACTAA was run?
A: The binding signal (normalized occupancy) was 0.0743.

Q: For ATGACCCC, which binding signal (normalized occupancy) is on record?
A: The binding signal (normalized occupancy) was 0.0894.

Q: For GAACGGCC, which binding signal (normalized occupancy) is on record?
A: Its binding signal (normalized occupancy) is 0.0704.

Q: How did the binding signal (normalized occupancy) turn out when CCCGGAAA was run?
A: The binding signal (normalized occupancy) was 0.0696.

Q: TGGTATAA was tested. Which binding signal (normalized occupancy) did it give?
A: Its binding signal (normalized occupancy) is 0.0843.

Q: CAAATGCC was tested. Which binding signal (normalized occupancy) did it give?
A: Its binding signal (normalized occupancy) is 0.0743.

Q: ACCGCAGG was tested. Which binding signal (normalized occupancy) did it give?
A: The binding signal (normalized occupancy) was 0.0665.

Q: How did the binding signal (normalized occupancy) turn out when AACTATTG was run?
A: The binding signal (normalized occupancy) was 0.0729.

Q: For AATCGTAC, which binding signal (normalized occupancy) is on record?
A: The binding signal (normalized occupancy) was 0.0751.

Q: With CGCTTCTA as the sequence, how does the binding signal (normalized occupancy) read?
A: The binding signal (normalized occupancy) was 0.0728.

Q: For GCATCCAC, which binding signal (normalized occupancy) is on record?
A: The binding signal (normalized occupancy) was 0.0831.

Q: CTATGGAA was tested. Which binding signal (normalized occupancy) did it give?
A: The binding signal (normalized occupancy) was 0.0738.

Q: How did the binding signal (normalized occupancy) turn out when CCCCTATC was run?
A: The binding signal (normalized occupancy) was 0.0818.

Q: For AGACTGAG, which binding signal (normalized occupancy) is on record?
A: Its binding signal (normalized occupancy) is 0.0653.

Q: Which binding signal (normalized occupancy) does the source give for GACCTACA here?
A: Its binding signal (normalized occupancy) is 0.0734.

Q: Which binding signal (normalized occupancy) does the source give for ATCGGCCC here?
A: The binding signal (normalized occupancy) was 0.0713.

Q: How did the binding signal (normalized occupancy) turn out when GAGAAGGC was run?
A: The binding signal (normalized occupancy) was 0.0712.

Q: How did the binding signal (normalized occupancy) turn out when AACCCTGA was run?
A: The binding signal (normalized occupancy) was 0.078.

Q: ATAACAGC was tested. Which binding signal (normalized occupancy) did it give?
A: The binding signal (normalized occupancy) was 0.0824.

Q: For CTTCCGAC, which binding signal (normalized occupancy) is on record?
A: The binding signal (normalized occupancy) was 0.0726.

Q: For CACAACTC, which binding signal (normalized occupancy) is on record?
A: The binding signal (normalized occupancy) was 0.0769.

Q: How did the binding signal (normalized occupancy) turn out when CCTCGACA was run?
A: The binding signal (normalized occupancy) was 0.0815.

Q: For CCATACAA, which binding signal (normalized occupancy) is on record?
A: Its binding signal (normalized occupancy) is 0.0832.

Q: For GTGAGGTA, which binding signal (normalized occupancy) is on record?
A: The binding signal (normalized occupancy) was 0.084.

Q: With ATGTAGGC as the sequence, how does the binding signal (normalized occupancy) read?
A: The binding signal (normalized occupancy) was 0.0776.

Q: For ACATTCCG, which binding signal (normalized occupancy) is on record?
A: Its binding signal (normalized occupancy) is 0.0797.

Q: ATAACCCA was tested. Which binding signal (normalized occupancy) did it give?
A: Its binding signal (normalized occupancy) is 0.0805.

Q: How did the binding signal (normalized occupancy) turn out when CTCGAAAG was run?
A: Its binding signal (normalized occupancy) is 0.0685.

Q: Which binding signal (normalized occupancy) does the source give for AGTATTAT here?
A: The binding signal (normalized occupancy) was 0.0827.

Q: How did the binding signal (normalized occupancy) turn out when AATACGCG was run?
A: Its binding signal (normalized occupancy) is 0.0742.

Q: With ACCGTCCT as the sequence, how does the binding signal (normalized occupancy) read?
A: Its binding signal (normalized occupancy) is 0.0712.

Q: How did the binding signal (normalized occupancy) turn out when TCCTGTCA was run?
A: The binding signal (normalized occupancy) was 0.0719.

Q: With CTTGTTTA as the sequence, how does the binding signal (normalized occupancy) read?
A: The binding signal (normalized occupancy) was 0.0714.

Q: Which binding signal (normalized occupancy) does the source give for TTAGCCAA here?
A: The binding signal (normalized occupancy) was 0.0744.

Q: With CTCACAAG as the sequence, how does the binding signal (normalized occupancy) read?
A: Its binding signal (normalized occupancy) is 0.0771.

Q: Which binding signal (normalized occupancy) does the source give for GTCACTCA here?
A: The binding signal (normalized occupancy) was 0.0715.

Q: For AAAAGTAC, which binding signal (normalized occupancy) is on record?
A: The binding signal (normalized occupancy) was 0.0759.

Q: Which binding signal (normalized occupancy) does the source give for TTGATCAA here?
A: Its binding signal (normalized occupancy) is 0.0795.

Q: Which binding signal (normalized occupancy) does the source give for CCCTACTA here?
A: The binding signal (normalized occupancy) was 0.079.

Q: With ACACGAAC as the sequence, how does the binding signal (normalized occupancy) read?
A: Its binding signal (normalized occupancy) is 0.0763.

Q: With GATGATCC as the sequence, how does the binding signal (normalized occupancy) read?
A: The binding signal (normalized occupancy) was 0.0776.

Q: With AAAGAGTG as the sequence, how does the binding signal (normalized occupancy) read?
A: Its binding signal (normalized occupancy) is 0.0765.

Q: Which binding signal (normalized occupancy) does the source give for CGCCAGAG here?
A: Its binding signal (normalized occupancy) is 0.0665.

Q: GCTCAACA was tested. Which binding signal (normalized occupancy) did it give?
A: Its binding signal (normalized occupancy) is 0.0722.

Q: How did the binding signal (normalized occupancy) turn out when ATGTACGC was run?
A: The binding signal (normalized occupancy) was 0.0847.

Q: Which binding signal (normalized occupancy) does the source give for ACCTTTAA here?
A: The binding signal (normalized occupancy) was 0.0744.
